Results: the supplement of paper PMC11417369
± gives the standard deviation of the averaged measurements. The list shows a part of the results.

test system: PfAP2-G AP2 domain (GST-tagged); assay: gcPBM binding intensity (ln(normalized median fluorescence intensity)); higher = stronger DNA binding
Method in brief: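 Binding intensity values are the highest Masliner-normalised natural-log median intensity among replicate spots of either probe orientation. The binding step lasted 1 h in 1× PBS with 1% milk, 0.2 mg/ml BSA, 0.5% salmon testes DNA and 0.03% Triton X-100, using GST-tagged P. falciparum DNA-binding domains expressed in E. coli on an Agilent 4 × 180k array of primer-extended double-stranded 36-bp intergenic genomic probes plus negative controls. Alexa488 anti-GST antibody and a 488 nm scan detected bound protein.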

Sequence | gcPBM binding intensity (ln)
AAAAATACCTTATATATACACACTATGTTTTTCTTT [CACACA_site1192] | 9.96 ± 0.15
AAATATTAGTAACACAGACACACAAAAAAAAAAAAA [CACACA_site2175] | 9.96 ± 0.35
AAAAAAAAAAAAAAAAGTACACAAATTTTAAAAATT [XGTACX_site3006] | 11.6 ± 0.88
TTGTATTATATTGTATTATGTTTAAATGAAAAAAAA [CACACA_negctrl_site662] | 10 ± 0.4
TATTGTTACTTTATATGTACTAATTAAACATATACA [XGTACX_site6363] | 11.1 ± 0.89
AATTACTACATAAATACATGCATAATTATATATATA [TGCATGCA_site783] | 9.74 ± 0.19
TATCTCTTCATATTGTGTACATATTTTTATTTATTG [XGTACX_site4038] | 11.4 ± 0.72
ATAAAATATAAAAATTGTACGATAATAATAGTAGGA [XGTACX_site8951] | 10.8 ± 0.36
AACACTTCTTATTTATGTACTTAATTCCCAACGGAA [XGTACX_site4818] | 11.3 ± 0.63
AAATATATATATATATATATATATATATATATATAT [CACACA_negctrl_site677] | 10 ± 1
AAATGAATAAATAAGACACACACGAAAATAAGTAAA [CACACA_site71] | 10.2 ± 0.11
TGATCAGATAGACACACACACAAAAAAAAAAAAAAA [CACACA_site7805] | 10.1 ± 0.48
TTATAAAATTACTTGGTGCATTAGAATATTTCAATA | 10.1 ± 0.3
ACTTATATATTATGTTGTCCGTCCATTCTCTTTATC [XGTACX_site3769] | 11.2 ± 0.61
TACATGTATAAATAAGCACACATGTGGATATGTACA [CACACA_site93] | 10.7 ± 0.27
CAAAATATTTTTATAACACACATATATATAATGTGC [CACACA_site4767] | 9.9
TTTTCATTCAATTATATTTATATATATATATATATA [GTGCAC_negctrl_site538] | 9.91 ± 0.39
TAAAAAATTTTATATTCACACACATATATATATATA [CACACA_site8109] | 10.1 ± 0.29
TAAAAGTATATATATACACACATAAATATATATGTA [CACACA_site663] | 9.86 ± 0.14

Sequence | gcPBM binding intensity (ln)
TACACAAGGGGAAAAATATATATATATATATATATA [TGCATGCA_negctrl_site217] | 9.86 ± 0.46
TTTTTTTTGGAATTCACACAAATATAACATGGGTAT [CACACA_site5185] | 10.2 ± 0.3
TTCTTTTCTTTAGTAGAATGTAAAAAATATAATCTT [XGTACX_negctrl_site290] | 9.84 ± 0.17
AAAATTTAAAGCATGACACACAATTATATTATGTGC [CACACA_site3435] | 9.72 ± 0.085
TTGTGAAATAAAATTTGTACACACATATATATATAT [XGTACX_site1078] | 11.2 ± 0.86
TTTTTTTTTTTTTTTGCACACACCATATTTATAGAA [CACACA_site3310] | 10 ± 0.55
AGAAAAGTGATATATACACACTTATATTTATTTATA [CACACA_site7350] | 9.875 ± 0.007
AAAAAAAAAAAAAAAACACACATACATACATACATA [CACACA_site6125] | 10.3 ± 0.22
TTTTATAAGGTGAAAAGTACATATAACTTATTTTAC [XGTACX_site5572] | 11.2 ± 0.75
TATTGTCTATAATAAACACACAATATTAAAAATATA [CACACA_site6624] | 9.93 ± 0.28
ATCTTTCCTATTTGTAGTACAAAAAAAAAAAAAAAA [XGTACX_site5485] | 11.4 ± 1
TTAAATGATGTAAACACACACATATACATTATTATA [CACACA_site3162] | 9.895 ± 0.049
ATATATATATATATATGTACTTATAATAATATTCAA [XGTACX_site2593] | 11.3 ± 0.81
ACGTGTGATTATAATTGTACTTTAATGTAAGAATGA [XGTACX_site1109] | 11.2 ± 0.76
TTATTTTATTTTTTTGTGCACATATATATTTATAAA [GTGCAC_site9615] | 10.7 ± 0.42
AATTTTATTTAATTTTTTTGGGAAATGATAAAATTT [CACACA_negctrl_site934] | 9.88 ± 0.2
AAAATTAATTATTACAAAAATGAAAAGACATATTTT [GTGCAC_negctrl_site735] | 9.73 ± 0.17
TCACATTTTGGACACGTGCACATATATTTGATACAT | 10.9 ± 0.4
ATTGTAAGTAAACACACACACATATATCTGTATTTA [CACACA_site4542] | 9.98 ± 0.12

Sequence | gcPBM binding intensity (ln)
TACCATGTTCAAATTACACACATATAATGCAATATA [CACACA_site7034] | 10.1 ± 0.25
CTGAAATTAACAAAAGTGCATAAAAATAAAAAATAT [GTGCAC_site9652] | 10.2 ± 0.19
ATTTATATATAAATGTGTACATATATATATATAAAC [XGTACX_site7592] | 11.5 ± 0.81
CAATGCAAGGCTTAAAAAAATGGGCATATTATATAT [GTGCAC_negctrl_site304] | 10.2 ± 0.16
AATATTATATTAAAATGTACAAAAATGAATTACTTT [XGTACX_site1473] | 10.8 ± 0.3
TTTTTTTACAACATTACACACAAATATTCTGGGTTA [CACACA_site3755] | 9.96 ± 0.042
AATAATTGTTAAAGGTGTACAATACCTACATAAGAA [XGTACX_site4215] | 11.5 ± 0.95
AAATGGCAATAATGGACACACAAATGTTGTTATATA [CACACA_site2819] | 10.7 ± 0.46
GGAATTGAAAAATCAGCACACACACTAATACATACA [CACACA_site9059] | 10.3 ± 0.25
ATTTACCAGACCATATGTACATACATAAAACACACA [XGTACX_site3788] | 11.3 ± 0.76
AAAAAGGAAATTTACACACACATATAATATACATTA [CACACA_site3296] | 9.92 ± 0.014
GTTCTACAAGCCACTGCATGCTGATATAGAATAAAT [TGCATGCA_site138] | 9.95 ± 0.13
ATATGATTATTATTATATAAATTATAAAGTCTAATA [GTGCAC_negctrl_site586] | 9.565 ± 0.078
TTCTTTGCTTTTCAAACACACAAAAGTTATTATAGT [CACACA_site6390] | 10.01 ± 0.078
TCATATATCCTTATCACACATATAATAAATTCCCTT [CACACA_site4457] | 9.84 ± 0.14
AATATTTCTCATTTTGTGCACTGAAAAATGTAATAT | 10.3 ± 0.32
CTTTTTAATTAATACACACACACACGGATATAAATA [CACACA_site7145] | 10.4 ± 0.24
TATTTTTTTTGTGTGTGTCCTCATGTAATACTGCAA [XGTACX_site1380] | 11.1 ± 0.71
ATATATATATATATATGTACTTAAAAAATATATACA [XGTACX_site8952] | 11.2 ± 0.8
